Results reported in PubChem BioAssay (NCI).
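48-hour exposure; five concentrations; linearly interpolated endpoints. At the GI50, growth is halved. TGI is the concentration that stops growth completely.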

Test system: NCI-H322M lung
Assay: NCI-60 cell line screen, 48 h

For `CC(=O)c1c(C(F)(F)F)n([O-])c2ccc(Cl)cc2[n+]1=O`, which GI50 is on record?
Its GI50 is 11.9 µM.

And the TGI?
Its TGI is 30.5 µM.

`CC(C)(C)c1ccc(-c2nc3ccc([N+](=O)[O-])cc3c(=O)o2)cc1` was tested. Which TGI did it give?
Its TGI is greater than 100 µM.

What does the source list for `COc1ccc(NC(=O)n2nc(N)c3ccccc32)cc1OC`?
GI50: > 100 µM; TGI: > 100 µM

With `O=c1[nH]c(=O)n(C2CC(O)C(CO)O2)cc1OCCCc1ccccc1` (configuration not stated) as the molecule, how does the TGI read?
Its TGI is greater than 100 µM.

Which GI50 does the source give for `CN(C)c1ccc(C(=C2C=CC(=[N+](C)C)C=C2)c2ccc(N(C)C)cc2)cc1` (tested in a mixture with another compound) here?
Its GI50 is 0.16 µM.

What about the TGI of the same molecule?
Its TGI is 1.56 µM.

`CN1C2CC(=O)CC1[C@H](O)[C@@H]2O` was tested. Which TGI did it give?
Its TGI is greater than 100 µM.

With `O=C1NC(Cc2c[nH]c3ccccc23)C(=O)N2C(C3CCCCC3)c3[nH]c4ccccc4c3C[C@@H]12` (some centres not stated) as the molecule, how does the TGI read?
Its TGI is 59.6 µM.

For `CN(C)c1ccc(N=Cc2c([O-])ccc3ccccc23)cc1.[C-]#[O+].[C-]#[O+].[Ir]`, which GI50 is on record?
The GI50 was 27.2 µM.

What about the TGI of the same molecule?
The TGI was 89.1 µM.

With `O=P(O)(O)c1ccccc1` (tested in a mixture with another compound) as the molecule, how does the TGI read?
Its TGI is greater than 100 µM.

For `CC(=O)OC1CC(n2cc(F)c(=O)[nH]c2=O)OC1CO` (configuration not stated), which TGI is on record?
The TGI was greater than 100 µM.

What does the source list for `COc1cc(/C=C/c2cc(/C=C/c3ccc(O)c(OC)c3)n(-c3c(C)cccc3C)c(=O)n2)ccc1O`?
GI50: 0.952 µM; TGI: 5.34 µM

Which TGI does the source give for `COc1nc(SC)nc2c1cnn2C1OC(C(O)CO)C(OC)C1O` (configuration not stated) here?
Its TGI is greater than 100 µM.

`CCCCCNc1nonc1N` was tested. Which TGI did it give?
The TGI was greater than 100 µM.

For `CC1(C)N=C(C(N)=O)c2ncn(-c3ccccc3)c2N1`, which TGI is on record?
Its TGI is greater than 100 µM.

With `O=C(CC(=O)N1N=C(N2CCCCC2)CC1c1ccccc1)Nc1ccc(Cl)cc1` (configuration not stated) as the molecule, how does the TGI read?
The TGI was greater than 100 µM.

For `CC(=O)O/N=C/c1ncccc1OC(C)=O`, which TGI is on record?
The TGI was greater than 100 µM.

For `CN1CCCNc2c(c(=O)c2=O)NCCCN(C)CCCNc2c(c(=O)c2=O)NCCCN(C)CCCNc2c(c(=O)c2=O)NCCCN(C)CCCNc2c(c(=O)c2=O)NCCCN(C)CCCNc2c(c(=O)c2=O)NCCCN(C)CCCNc2c(c(=O)c2=O)NCCCN(C)CCCNc2c(c(=O)c2=O)NCCC1`, which GI50 is on record?
Its GI50 is 4.77 µM.

And the TGI?
Its TGI is 10.7 µM.

Which TGI does the source give for `CC1C[C@H](OC(N)=O)C(C)CC1=O` (some centres not stated) here?
Its TGI is greater than 100 µM.

`CSC(C1c2ccccc2N(C)C2=NC(=O)N(C)C(=O)C21Cl)S(=O)(=O)c1ccc(C)cc1` (configuration not stated) was tested. Which TGI did it give?
The TGI was greater than 100 µM.

With `CC1(C)CC[C@]2(C)CC=C3[C@]4(C)CC[C@H]5C(C)(C)C(=O)CC[C@]5(C)[C@H]4CC[C@@]3(C)[C@H]2C1` as the molecule, how does the TGI read?
Its TGI is greater than 100 µM.

With `CC(OC(=O)NCn1cc(-c2ccccc2)nn1)c1ccccc1` (configuration not stated) as the molecule, how does the TGI read?
The TGI was greater than 100 µM.

`CCOC(=O)CCC(NC(=O)c1ccc(Oc2nc3ccc(C(F)(F)F)cc3nc2-c2ccccc2)cc1)C(=O)OCC` (configuration not stated) was tested. Which TGI did it give?
The TGI was greater than 100 µM.

With `COc1cc2c(cc1OC)-c1cc3cc(OC)c(OC)cc3n1CC2` as the molecule, how does the TGI read?
The TGI was greater than 100 µM.

How did the TGI turn out when `CC(N)C(C)Cc1ccccc1` (configuration not stated) was run?
The TGI was greater than 100 µM.

`COc1cc2c(cc1OCCOS(C)(=O)=O)N=C[C@@H]1CCCN1C2=O` was tested. Which TGI did it give?
The TGI was greater than 100 µM.

How did the GI50 turn out when `Cc1nc2sccn2c(=O)c1CCN1CCC(=C(c2ccc(F)cc2)c2ccc(F)cc2)CC1` was run?
The GI50 was 14.3 µM.

What about the TGI of the same molecule?
The TGI was 27.5 µM.

Which TGI does the source give for `Cc1ccc(NC(=O)c2cccc([N+](=O)[O-])c2O)c([N+](=O)[O-])c1` here?
The TGI was 49.1 µM.

`CCN(CC)c1cc(/C=C/c2ccc(OC)c(OC)c2)nc2cc(F)c(F)cc12` was tested. Which GI50 did it give?
The GI50 was greater than 100 µM.

And the TGI?
Its TGI is greater than 100 µM.

How did the TGI turn out when `CC(C)(C)NN=C1C(C)(C)C(=NNC(C)(C)C)C1(C)C` was run?
The TGI was greater than 100 µM.

`Clc1ccc(Oc2ccc(N=Cc3ccc(Cl)cc3Cl)cc2Cl)cc1` was tested. Which TGI did it give?
Its TGI is greater than 100 µM.

For `O=C(CC1(O)C(=O)Nc2ccccc21)c1ccccc1Cl` (configuration not stated), which TGI is on record?
Its TGI is greater than 100 µM.

For `COc1ccc(/C(Cl)=C(\C=O)c2ccc([N+](=O)[O-])cc2)cc1OC`, which TGI is on record?
The TGI was 43.7 µM.

How did the TGI turn out when `COc1cc(C2c3cc4c(cc3OC(Nc3ccc(C(=O)O)cc3)C2C)OCO4)cc(OC)c1OC` (configuration not stated) was run?
Its TGI is greater than 100 µM.

For `COc1ccc2oc3c4c2c1CCC4CCC3=O` (configuration not stated), which TGI is on record?
Its TGI is greater than 100 µM.

Which TGI does the source give for `NC(=O)C1=NNc2ccccc2C(=O)N1c1ccccc1` here?
Its TGI is greater than 100 µM.

Which results are given for `CCCCCC(O)C1C(=O)OC(C)C(O)/C=C/C=C/C=C/C=C\C=C(\C)C(O)CC(O)CC(O)CC(O)CC(O)CC(O)CC1O` (configuration not stated)?
GI50: > 100 µM; TGI: > 100 µM

For `COC1=CC(=O)[C@H]2[C@H](C)C(c3ccccc3)[C@@]2(C)C1=O` (some centres not stated), which TGI is on record?
Its TGI is greater than 100 µM.

Which GI50 does the source give for `NC(=NCCCOc1ccc(Cl)cc1)Nc1ccc(Cl)cc1` here?
The GI50 was 3.36 µM.

And the TGI?
The TGI was 13.1 µM.

How did the TGI turn out when `Nc1c(-c2nc3ccccc3s2)c2ccc([N+](=O)[O-])cc2c(=O)n1-c1cccc(C(=O)O)c1` was run?
Its TGI is 69.9 µM.

With `CCCCn1c(C)c(C(=O)OCC)s/c1=N/Nc1nc2ccccc2nc1-c1ccccc1` as the molecule, how does the TGI read?
The TGI was greater than 100 µM.

For `O=[N+]([O-])c1cccc2nc3ccccc3c(NCCc3cccc[n+]3[O-])c12`, which TGI is on record?
Its TGI is 0.723 µM.

Which TGI does the source give for `S=C(N/N=C(/c1ccccc1)c1ccccn1)Nc1ccccc1Cl` here?
The TGI was 13.7 µM.

Which TGI does the source give for `CCCCC(=O)Nc1ccc2cc(C(=O)OC)c(ON3C(=O)c4ccccc4C3=O)nc2n1` here?
Its TGI is 77.6 µM.

Which GI50 does the source give for `O=C(OCc1ccccc1)N1CCN(/[N+]([O-])=N/Oc2ccc([N+](=O)[O-])cc2[N+](=O)[O-])CC1` here?
Its GI50 is 14.3 µM.

What about the TGI of the same molecule?
Its TGI is 27.8 µM.

Which TGI does the source give for `CN(NC(=O)CCCl)C1=NCCN1` here?
Its TGI is greater than 100 µM.

With `C=C/C=C(\NC(=O)C(Cl)(Cl)Cl)[Si](C)(C)C` as the molecule, how does the TGI read?
Its TGI is greater than 100 µM.

With `COC(OC)c1cccc2c1C(=O)CCC1(O)c3ccccc3C1C2` (configuration not stated) as the molecule, how does the TGI read?
Its TGI is greater than 100 µM.

Which TGI does the source give for `OC12COc3ccccc3C1Oc1ccccc1C2` (configuration not stated) here?
The TGI was greater than 100 µM.

With `O=[N+]([O-])c1ccc(-c2nc(-c3ccccc3)c(-c3ccccc3)n2-c2ccccc2)cc1` as the molecule, how does the GI50 read?
Its GI50 is 3.54 µM.

What about the TGI of the same molecule?
The TGI was 16.1 µM.

For `CC(=O)OCC1OC(n2c3c(c(-c4ccco4)c(C#N)c2=S)CCC3)C(OC(C)=O)C(OC(C)=O)C1OC(C)=O` (configuration not stated), which TGI is on record?
The TGI was greater than 100 µM.
